These results are taken from ChEMBL document CHEMBL4888484, “Replenishing the malaria drug discovery pipeline: Screening and hit evaluation of the MMV Hit Generation Library 1 (HGL1) against asexual blood stage Plasmodium falciparum ,using a nano luciferase reporter read-out” (2022).

For orientation: % Inhibition means the change of the read-out against control, counted positive when it falls.

Out of some 150,000 compounds screened, about 540 (0.36%) showed an effect of 50% or more. Some of the results follow.

For the test, the system named is Plasmodium falciparum. Nature of the test: Primary screen in NF54 nanoGlo assay, in single point, at 2uM, 72h; a lower Z score goes with more inhibition. The test is classed as functional, Erythrocyte. The settings on record: timepoint 72 hour.
For the compound `CC1(CNC(=O)[C@@H](N)CCCNC(N)=O)CCCCC1`, the “% Inhibition” value was -9% and the Z score was found to be 0.97.
Take `COC(=O)[C@@H](C)NC(=O)c1coc(C)n1`: the “% Inhibition” value is reported as 5% and the Z score is listed as -0.68.
`Nc1nc2c(c(C(=O)N3CCC(c4nc5ccccc5o4)CC3)n1)CCCC2`: the “% Inhibition” value is listed as -13% and the Z score is 1.73.
For `Cc1ccc(C(C)(C)CN(C)C(=O)c2nc3n(n2)CCCN3)cc1`, in that order: 14% and -1.75.
For `CCn1ncnc1CN(C)Cc1n[nH]c2c1CCC2`, in that order: -5% and 0.69.
For `C=CCCN[C@@H](C)c1ccc(S(C)(=O)=O)c(F)c1`, the “% Inhibition” value was -3% and the Z score worked out at 0.57.
Consider `Cc1ccc(C2(Nc3ncc(F)c(N(C)C)n3)CC2)cc1`, for which the “% Inhibition” value was determined as 13% and the Z score was -1.81.
The like results for `CC(C)c1nc(CN(C)c2nc3c(c(=O)[nH]2)CCNCC3)cs1` were, in that order, -9% and 1.68.
With `CN1C[C@@H](c2ccccc2)CC2(CCN(C(=O)c3ccc(C#N)cc3)CC2)C1`, the “% Inhibition” value amounted to 4% and the Z score is recorded as -0.76.
In the case of `Cc1ccc(Nc2nc(NCc3ccccn3)nc3[nH]ncc23)cc1C`, the “% Inhibition” value worked out at 1% and the Z score is on record as -0.1.
As for `N#Cc1cnc(OC2CCC2)c(Cl)c1`, the “% Inhibition” value is recorded as 0% and the Z score was found to be 0.03.
The like results for `CCCc1nnc(NC(=O)[C@@H]2Cc3ccccc3C(=O)O2)s1` were, in that order, -8% and 1.31.
For `Cc1nn(C)c(C)c1CC(=O)N(CC1CCCCC1)c1ccccn1`, in that order: -9% and 0.99.
For `CCN(CC(=O)Nc1c(C)cccc1C)C(=O)[C@H]1CCCOC1`, in that order: -6% and 0.77.
As for `Clc1ccc(NCc2nccs2)cc1-n1nnnc1C1CC1`, the “% Inhibition” value came to 7% and the Z score is -0.84.
The like results for `CCN(CC1CCOC1)C(=O)C1CCN(c2ccc(Cl)c(Cl)c2)C1=O` (stereo not given) were, in that order, 7% and -1.02.
The like results for `COc1ccc(-c2cnc3nc(C)[nH]c3c2)c(-n2cccn2)c1` were, in that order, 8% and -1.74.
The like results for `C=CCOc1ccccc1CN[C@H]1C[C@@H](C(=O)NCC)N(Cc2ccccc2Cl)C1` were, in that order, -16% and 2.08.
Turning to `COC(=O)CC(C)(C)C(=O)NC[C@H]1CCCN1S(C)(=O)=O`, the “% Inhibition” value came out at 8% and the Z score is -0.76.
Consider `CCCc1cc(C(=O)NC[C@H](O)c2cccnc2)no1`, for which the “% Inhibition” value is recorded as -7% and the Z score was found to be 1.27.
`Cc1nnc(N2CCc3c(cccc3C(F)(F)F)C2)n1C`: the “% Inhibition” value was -8% and the Z score was 0.8.
The like results for `O=C(Cc1ccccc1)N1CCN(S(=O)(=O)c2ccco2)CC1` were, in that order, -6% and 0.75.
The like results for `COCCN1C(=O)C2C(C)NC3(C(=O)Nc4c(C)cc(C)cc43)C2C1=O` (stereo not given) were, in that order, -8% and 1.05.
With `Cc1ccc(N(C)C(C)C)c(C(=O)NC[C@H]2OCCN(C)[C@@H]2c2cnn(C)c2)c1`, the “% Inhibition” value is on record as 2% and the Z score was -0.4.
For `N#Cc1ccc(N2CC3CC=CCC3C2)nc1` (stereo not given), in that order: -14% and 2.32.
With `O=C(c1cnc2c(F)cc(F)cc2c1O)N1CCOCC2(CC2)C1`, the “% Inhibition” value is -9% and the Z score is 1.
The like results for `CCC(C)C(C(=O)Nc1n[nH]c(-c2cccs2)n1)n1cnnn1` (stereo not given) were, in that order, -4% and 0.53.
For `Cc1ccsc1C(=O)N(C)C1CCN(Cc2ccncc2)CC1`, in that order: -5% and 0.61.
Consider `Cc1ccc(S(=O)(=O)N2C[C@@H](C)CC2(C)C)o1`, for which the “% Inhibition” value is given as 7% and the Z score was -1.22.
Consider `CC(C)[C@H](Cn1cncn1)NC(=O)c1cncc(F)c1`, for which the “% Inhibition” value was -11% and the Z score was determined as 2.15.
The like results for `CCOc1ccccc1CNC(C)(C)CO` were, in that order, -4% and 0.51.
Take `Cc1ccc2nc(NCc3ccccc3Cl)c(-n3nc(C)cc3C)nc2c1`: the “% Inhibition” value is given as -2% and the Z score is recorded as 0.24.
`Cc1ocnc1C(=O)NCC1(c2cccc(F)c2F)CCCC1`: the “% Inhibition” value is recorded as -6% and the Z score turned out to be 0.76.
For `O=C(Nc1cccc(F)c1)c1nnc(COCC(=O)N2CCCCC2)s1`, in that order: -7% and 1.01.
In the case of `COc1cc(CCNS(=O)(=O)CCO[C@H]2CCOC2)ccc1C`, the “% Inhibition” value was -2% and the Z score came to 0.34.
The like results for `Cc1nc(-c2ccccc2C)c(N)c(N2CCCC2)n1` were, in that order, -2% and 0.33.
For the compound `CN(Cc1ccccc1)C(=O)c1ccc2c(c1)N(CC(=O)N1CCCC1)C(=O)CO2`, the “% Inhibition” value is listed as -13% and the Z score turned out to be 1.68.
For `CCN(Cc1nonc1C)C(=O)c1cc(C)nc2onc(C)c12`, in that order: -14% and 1.64.
For `Cc1occc1C(=O)Nc1ccc(Cc2nnc3n2CCC3)cc1`, in that order: -8% and 0.76.
The like results for `O=C1c2cccc3cccc(c23)C(=O)N1c1nc2c(ccc3ccccc32)s1` were, in that order, 3% and -0.42.
As to `CC1CCN(C(=O)CCNC(=O)c2ccc(N3CC(=O)NC3=O)cc2)CC1`, the “% Inhibition” value is on record as -14% and the Z score was determined as 1.75.
The like results for `O=C1C[C@@H](C(=O)Nc2ccc3c(c2)OCO3)n2ncc(-c3ccc(Cl)cc3)c2N1` were, in that order, -9% and 0.99.
For `Cc1cnc(C2CCC2)n1CC1CCN(C(=O)c2ccc(C#N)cc2)CC1`, in that order: -5% and 0.7.
As for `C[C@H]1CS(=O)(=O)N(c2ccc(C(=O)NCc3ccccc3F)c(Cl)c2)C1=O`, the “% Inhibition” value is reported as -10% and the Z score worked out at 1.3.
Take `COc1ncccc1N(C)C(=O)c1ccc(-c2ccccc2F)s1`: the “% Inhibition” value is on record as -18% and the Z score came out at 1.79.
The like results for `Cc1ncccc1CNCc1nn(C)c2ccccc12` were, in that order, -4% and 0.62.
The like results for `CC(C)N1CCN(CCCN2CCCC3(CCCCO3)C2C#N)CC1` (stereo not given) were, in that order, 1% and -0.19.
As for `CC(C)(C)OC(=O)N1CC(O)CC1(C)C(=O)NCCc1ccco1` (stereo not given), the “% Inhibition” value is -8% and the Z score was found to be 1.66.
For `Cc1ccc2c(c1)CCN(Cc1nncs1)C2`, in that order: -2% and 0.2.
With `C[C@H](NS(=O)(=O)c1cccc(F)c1F)C(N)=O`, the “% Inhibition” value is listed as -7% and the Z score worked out at 0.62.
The like results for `Cc1ccnc(NC(=O)[C@@]2(C)CC2(Cl)Cl)c1` were, in that order, 2% and -0.4.
Consider `Cc1ccc(S(=O)(=O)N2CCc3[nH]cnc3[C@H]2c2cccnc2)cc1F`, for which the “% Inhibition” value is listed as -6% and the Z score is on record as 1.05.
For `NC(=O)CCCc1nc(-c2c[nH]c3ccccc23)nn1C1CCCCC1`, in that order: -3% and 0.44.
The like results for `CCC(=O)N(Cc1ccc(-c2ccc(Cl)cc2)o1)[C@H]1CCS(=O)(=O)C1` were, in that order, 63% and -8.22.
For `O=C(c1cncc(N2CCC3(CCCO3)CC2)n1)N1CCOCC1`, in that order: -4% and 0.83.
`O=C(COC(=O)c1ccc(N2C(=O)c3ccccc3C2=O)cc1)NCc1ccc2c(c1)OCO2`: the “% Inhibition” value is recorded as -4% and the Z score was determined as 0.59.
For `C[C@H](N)C(=O)Nc1ccnn1C1CCCCC1`, in that order: -8% and 1.45.
In the case of `C=CCN1CC[C@@]2(CCC1=O)CN(Cc1cccc3nonc13)CCN2C`, the “% Inhibition” value is -11% and the Z score stood at 2.07.
The like results for `COc1ccc(S(=O)(=O)N2CCc3cc4ccccc4nc32)cc1OC` were, in that order, -10% and 1.11.
The like results for `COc1ncccc1-c1ccc2c(c1)OC[C@@H](N1CCCC1)[C@@H]2O` were, in that order, 4% and -0.59.
As for `O=C1CCN(C(=O)c2coc3c2C(=O)NCCC3)CCCCCN1`, the “% Inhibition” value is reported as -3% and the Z score is given as 0.58.
`NC(=O)C1CCN(Cc2cccc(OCc3ccc(F)cc3)c2)CC1`: the “% Inhibition” value is listed as -6% and the Z score was determined as 0.94.
For `CC(C)S(=O)(=O)N(C)C(=O)c1cccc(C(F)(F)F)c1`, in that order: -7% and 1.01.
Turning to `CCOc1ccccc1C(=O)[C@@H]1[C@@H]2CCCN2[C@]2(C(=O)Nc3ccc(C)cc32)[C@@]12C(=O)Nc1ccccc12`, the “% Inhibition” value was determined as 6% and the Z score is -0.76.
Consider `Cn1ccc([C@H]2CCCN(C(=O)Nc3ccc(=O)n(C)n3)C2)n1`, for which the “% Inhibition” value is -3% and the Z score was 0.58.
As to `Cc1nc(CNC[C@H](O)c2ccc(Cl)c(F)c2)cs1`, the “% Inhibition” value is given as 10% and the Z score is on record as -1.19.
As to `CO[C@H]1CN(C2CCN(C(=O)CCc3c[nH]c4ccccc34)CC2)C12CCOCC2`, the “% Inhibition” value is recorded as -2% and the Z score is 0.27.
On to `O=C1CN(C(=O)Cn2c(-c3ccccc3)cc3ccccc32)c2ccccc2N1`, for which the “% Inhibition” value is recorded as 23% and the Z score is on record as -2.66.
As to `CN1Cc2ccccc2C[C@H]1C(=O)NCc1c[nH]nc1-c1ccc(Cl)cc1`, the “% Inhibition” value is given as -12% and the Z score was determined as 1.11.
With `Cc1nc(N2CCCC2)ccc1NC(=O)N1CCCC[C@H](C)C1`, the “% Inhibition” value is reported as -10% and the Z score was 1.43.
As for `Cc1c([C@@H](NC(=O)CCn2cncn2)C(C)C)oc2ccccc12`, the “% Inhibition” value is -9% and the Z score turned out to be 1.24.
The like results for `CC(C)(C)NC(=O)N1CCC2(CC1)C(=O)N(CC(=O)NC[C@H]1CCCO1)CN2c1ccccc1` were, in that order, -3% and 0.29.
For `O=C(Nc1ccc(NC(=O)c2ccco2)cc1)Nc1ccc(F)cc1F`, in that order: -9% and 1.68.
On to `CN(CCN1CCN(c2cccc(Cl)c2)C1=O)C(=O)OC(C)(C)C`, for which the “% Inhibition” value is 3% and the Z score was -0.32.
The like results for `CCC1(CC)Oc2ccc(NC3CCN(C(C)=O)CC3)cc2O1` were, in that order, 3% and -0.38.
The like results for `CC(=O)N1CCN(C(=O)C(C)N2CCc3sccc3C2c2ccccc2C)CC1` (stereo not given) were, in that order, 2% and -0.39.
The like results for `O=S(=O)(C1COC1)N1CCOCC1C1CCCO1` (stereo not given) were, in that order, 1% and -0.12.
In the case of `Cc1cc(F)ccc1NC(=O)CC(C)(C)CC(=O)O`, the “% Inhibition” value is recorded as -3% and the Z score is recorded as 0.45.
For `COC(=O)[C@@H](NC(=O)Nc1nncs1)C(C)(C)C`, in that order: 5% and -0.98.
`Cc1nc(C2CCCN2C(=O)CC2CCCCC2C)[nH]c1C` (stereo not given): the “% Inhibition” value came to 29% and the Z score is listed as -3.88.
On to `O=C(Cc1nc2ccccc2c(=O)[nH]1)Nc1ccc2c(c1)OCCO2`, for which the “% Inhibition” value is listed as -3% and the Z score is 0.45.
For `Cc1cc(C(=O)N[C@@H](C)c2ccc(C)o2)no1`, in that order: -2% and 0.33.
For `Cc1cc2c(cc1S(=O)(=O)N1CCN(C(=O)Cc3cccs3)CC1)OCC(=O)N2`, in that order: -16% and 1.63.
`COCCn1nc(C)c(NC(=O)C(=O)Nc2cc(Br)ccc2F)c1C`: the “% Inhibition” value is recorded as 0% and the Z score is 0.06.
For the compound `CC1(C)C(=O)NCCN1C(=O)NC[C@H]1CCCO1`, the “% Inhibition” value was -12% and the Z score was 1.72.
